For two molecules, GI50 and TGI results are on record in PubChem BioAssay (NCI).

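A five-concentration, 48-hour dose response in 96-well plates underlies each endpoint, interpolated linearly between surrounding concentrations. GI50 marks 50% less growth. TGI: concentration producing complete growth inhibition.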

The test system of the experiment is NCI-H322M lung. As to the kind of experiment: NCI anticancer screen, dose series, 48 h.

Take `COc1ccc(C2(SCCNCc3cc(N(C)C)ccn3)c3ccccc3C=Cc3ccccc32)cc1`: the GI50 is 0.099 µM and the TGI turned out to be 17 µM.

As for `CCC(C)(C)c1ccc(OCCCCN2CCN(c3ccncc3)CC2)cc1`, the GI50 was 15.2 µM and the TGI is 28.5 µM.
